Experimental data from PubChem BioAssay AID485367 (National Center for Advancing Translational Sciences (NCATS), 2010).
The whole screen tested about 330,000 compounds, of which about 560 (0.17%) were called active. The inconclusive results got no clear call from the source; some entries with a clear call stand among them for comparison. The call rests on the fitted dose curve; in most records, active means well fitted inhibition curve with a large enough effect; inconclusive means small, poorly fitted or top-dose-only effect, or effect the other way; inactive means flat fitted curve, though single readings scatter. Potencies of inconclusive entries are left out as doubtful fits.

target: ATP-dependent 6-phosphofructokinase (Trypanosoma brucei brucei) (UniProt O15648); assay: qHTS Assay to Find Inhibitors of T. brucei phosphofructokinase; further: nearly all actives have a fitted effect of over 60% in size; details: T. brucei PFK, ADP-Glo luminescence; series mostly up to 57.5 µM
Method in brief: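 Luminescent ADP detection (ADP-Glo, two-step: ATP depletion then ADP-to-ATP conversion for luciferase) reported PFK activity after 45 min room-temperature reaction of 1.25 nM enzyme with 0.5 mM F6P and 0.1 mM ATP at pH 8.0.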
Potency means the concentration at half of the fitted maximal effect; tags describe the fitted curve by direction and shape.

Chain of UniProt O15648 (O15648 whole entry, looked up): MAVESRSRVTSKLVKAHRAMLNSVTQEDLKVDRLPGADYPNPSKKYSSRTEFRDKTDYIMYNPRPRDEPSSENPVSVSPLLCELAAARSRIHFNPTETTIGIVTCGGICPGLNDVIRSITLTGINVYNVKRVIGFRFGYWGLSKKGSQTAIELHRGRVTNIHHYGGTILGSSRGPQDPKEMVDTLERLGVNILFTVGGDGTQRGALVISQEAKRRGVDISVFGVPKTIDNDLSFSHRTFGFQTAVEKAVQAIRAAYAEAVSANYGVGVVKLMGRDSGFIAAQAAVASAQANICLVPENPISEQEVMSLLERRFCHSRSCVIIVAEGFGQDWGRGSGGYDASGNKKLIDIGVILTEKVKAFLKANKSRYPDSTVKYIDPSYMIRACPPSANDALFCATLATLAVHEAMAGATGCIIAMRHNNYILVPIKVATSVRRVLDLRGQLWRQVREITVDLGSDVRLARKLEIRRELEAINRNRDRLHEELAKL

SMILES	Potency
COc1cc(OC)c(S(=O)(=O)N2CCOCC2)cc1S(=O)(=O)N1CCOCC1	inconclusive [falling, single point]
O=C(C[n+]1cc(Br)cc(Br)c1)c1cccc([N+](=O)[O-])c1	inconclusive [falling, partial curve, poor fit]
Nc1c(C(=O)N2CCCCC2)sc(=S)n1-c1ccccc1	inconclusive [falling, partial curve, poor fit]
Oc1cc2c(cc1O)CN(C(=S)NCCc1ccc(Cl)cc1)CCC2	inconclusive [falling, partial curve]
CCNc1nc(NCC)n2c(SCC(=O)Nc3ccc(NC(C)=O)cc3)nnc2n1	inconclusive [falling, single point]
COc1ccc2ccccc2c1/C=N/N1C(=O)CSC1=S	inconclusive [activator, single point]
O=C(c1cc2ccccc2o1)c1nc2c(n1O)CCCCC2	inconclusive [falling, single point]
O=C1CCCN2N=C(SCC(=O)Nc3nccs3)SC2=N1	inactive
Cc1ccc(NS(=O)(=O)c2ccc(NC(=O)C(C)Sc3ccc(Cl)cc3)cc2)c(C)c1 (configuration not stated)	inactive
COc1ccc(C2=CC(=O)C[C@H](c3ccc(F)cc3)C2)cc1F	inconclusive [falling, single point]
CN(C)CCn1nnnc1SCC1=C(C(=O)O)N2C(=O)[C@@H](NC(=O)Cc3csc(N)n3)[C@H]2SC1	active: 12 µM
O=C(COC(=O)C12CC3CC(CC(Br)(C3)C1)C2)Nc1ccc2[nH]c(=O)[nH]c2c1	inconclusive [falling, partial curve]
COc1ccccc1NS(=O)(=O)c1cc(NC(=S)NCCN2CCOCC2)ccc1N1CCOCC1	inconclusive [falling, partial curve]
CCNC(=O)C1CCCc2c1[nH]c1ccc(Cl)cc21 (configuration not stated)	inconclusive [falling, partial curve]
CC(NC(=O)COC(=O)c1ccccc1O)C1CC2CCC1C2 (configuration not stated)	inactive
O=C(COC(=O)C1CCCCC1C(=O)N1CCc2ccccc21)NCc1ccco1 (configuration not stated)	inconclusive [falling, partial curve]
O=C(NCc1nnc(SCc2ccc(F)cc2)n1-c1ccc(F)cc1)C12CC3CC(CC(C3)C1)C2	inactive
Cc1nc2sccn2c(=O)c1S(=O)(=O)Nc1cccc(Cl)c1C	inactive
Oc1ccc(C2=Nn3c(nnc3-c3ccco3)SC2)cc1O	active: 7.57 µM
C=CCn1c(CNC(=O)c2ccccc2C)nnc1SCC(=O)NC1CCCC1	inconclusive [falling, single point]
CC(=O)Nc1ccc(NC(=O)CSc2nc(N)c(NC(=O)c3ccccc3F)c(=O)[nH]2)cc1	inconclusive [falling, single point]
O=C(Nc1scc(-c2ccc(F)cc2)c1C(=O)O)c1ccco1	inconclusive [activator, full curve, poor fit]
Nc1nn2cc(-c3ccc(Br)cc3)nc2c2ccccc12	inconclusive [activator, single point]

SMILES	Potency
CCOc1ccc(CC(=O)NCC(=O)NCc2cc(=O)n(C)c(=O)n2C)cc1	inconclusive [falling, single point]
CCS(=O)(=O)NCCCc1ccccc1	inconclusive [activator, full curve, poor fit]
CC(=O)N[C@@H](CS)C(=O)O	inconclusive [activator, single point]
CC1CC(=O)N(c2ccc(NCc3ccc(Cl)cc3)c([N+](=O)[O-])c2)C1=O (configuration not stated)	inconclusive [falling, single point]
COc1ccc(/C=C2\SC(=O)N(CC(=O)NNC(=O)c3ccccc3O)C2=O)cc1	inconclusive [falling, single point]
Cc1cccc(C)c1NC(=S)NCCc1ccc(O)c(O)c1	inactive
CCN(CC(=O)Nc1c(F)cccc1F)C(=O)c1cc(S(=O)(=O)N2CCOCC2)ccc1N1CCCC1	inconclusive [falling, single point]
O=C1C2C3C=CC(CO)(O3)C2C(=O)N1c1ccccc1-c1ccccc1 (configuration not stated)	active: 21.3 µM
Cc1noc(C)c1COc1ccc(C(=O)NNC(=O)c2ccccc2O)cc1	active: 5.36 µM
COc1ccc(S(=O)(=O)N2CCOCC2)cc1NC(=O)COC(=O)c1[nH]c(C)c(C(C)=O)c1C	inactive
c1ccc(Cn2cc(-c3cccnc3)cn2)cc1	inconclusive [falling, single point]
CCC(NC(=S)NCc1ccc(F)cc1)c1ccc(C(C)C)cc1 (configuration not stated)	inconclusive [falling, single point]
O=C(O)c1cc(O)c2c(c1)[C@@H]([C@H]1c3cc(C(=O)O)cc(O)c3C(=O)c3c(O[C@@H]4O[C@H](CO)[C@@H](O)[C@H](O)[C@H]4O)cccc31)c1cccc(OC3O[C@H](CO)[C@@H](O)[C@H](O)[C@H]3O)c1C2=O (some centres not stated)	inconclusive [falling, full curve]
COc1cc2c(cc1OC)CN(c1nc(CN3CCCC3)nc3sc(C)c(C)c13)CC2	inactive
COc1ccc(S(=O)(=O)Nc2cc(SCC(=O)O)c(O)c3ccccc23)cc1	inconclusive [falling, partial curve]
O=C(NCCS(=O)(=O)N1CCN(c2cccc(Cl)c2)CC1)C1CC1	inconclusive [falling, single point]
CC(=O)N(\C=C/C=C/C=C1\Sc2ccccc2C1=O)c1ccccc1	inconclusive [activator, single point]
O=C(Nc1ccccc1)C(Cl)C(=O)c1ccccc1 (configuration not stated)	inactive
CC(Oc1ccc2ccccc2c1)C(=O)NNC(=S)NC(=O)c1ccco1 (configuration not stated)	inconclusive [activator, single point]
FC(F)(F)c1nc2ccccc2[nH]1	inconclusive [falling, partial curve]
c1ccc(Cc2ccc(OCCn3cncn3)cc2)cc1	inconclusive [falling, single point]
O=C(O)Cc1c[nH]c2cccc(O)c12	inconclusive [falling, single point]
Cc1ccc(C(=O)Nc2ccccc2[N+](=O)[O-])cc1S(=O)(=O)N1CCOCC1	inactive

SMILES	Potency
O=C(COc1ccc([N+](=O)[O-])cc1)Nc1cc(C(=O)O)cc(C(=O)O)c1	inconclusive [falling, partial curve]
O=C(NCCS(=O)(=O)N1CCC2(CC1)OCCO2)c1ccc(F)cc1	inconclusive [falling, single point]
CCn1ncc(/C=N\NC(=O)Cc2ccc([N+](=O)[O-])cc2)c1C	inconclusive [falling, partial curve]
COc1ccc(CN2C(=O)c3ccccc3C2C(=O)NC2CCCCCC2)c(OC)c1 (configuration not stated)	inconclusive [activator, single point]
CCC(C(=O)OCC(=O)Nc1ccc2[nH]c(=O)[nH]c2c1)c1ccccc1 (configuration not stated)	inconclusive [falling, single point]
O=C(Nc1ccc(S(=O)(=O)Nc2ncccn2)cc1)C1COc2ccccc2O1 (configuration not stated)	inconclusive [falling, partial curve]
COc1cc(/C=C2\C(=O)NN(c3ccccc3)C2=O)cc([N+](=O)[O-])c1O	inconclusive [activator, single point]
O=C(/C=C/c1ccc(OC(F)F)cc1)OCC(=O)N1CCN(C(=O)c2ccco2)CC1	inconclusive [falling, single point]
COc1ccc(OCC(=O)Nc2ccccc2Cl)cc1	inconclusive [falling, single point]
O=C(CSc1nc(Nc2ccccc2)nc(N2CCOCC2)n1)N1CCc2ccccc21	inconclusive [falling, single point]
Cc1cc(=O)[nH]c(N/N=C/c2c(O)n(-c3ccccc3)c(=O)c3ccccc23)n1	inconclusive [activator, single point]
C/C(CC(=O)N1CCN(C=O)CC1)=N\NC(=O)c1cccc([N+](=O)[O-])c1	inactive
O=C(O)C1C2CCC(O2)C1C(=O)Nc1ccc(O)cc1 (configuration not stated)	inactive
CCN(CC)c1ccc(NC(=O)CSc2ccsc2[N+](=O)[O-])c(C)c1	inconclusive [falling, partial curve]
COC(=O)c1cn(NC(=O)c2ccccc2[N+](=O)[O-])c(=O)c2ccccc12	inconclusive [activator, single point]
CC1=C(C#N)C(=O)N(C2CCS(=O)(=O)C2)C(=O)/C1=C\c1ccco1 (configuration not stated)	active: 15.1 µM
CCn1nnnc1NC(=O)c1cc(OC)c(OC)c(OC)c1	inactive
Cc1ccc(-n2nc3c(=O)n(CC(=O)NC(C)CCc4ccccc4)nc(C)c3c2C)cc1 (configuration not stated)	inactive
COc1ccccc1-n1c(C)c(C(C)=O)c2cc(O)ccc21	inactive
CCc1ccc(NC(=O)c2ccc3c(c2)C(=O)N(Cc2ccco2)C3=O)cc1	inconclusive [falling, single point]
O=C(OCC(=O)N1CCc2ccccc2C1)c1ccc(Cl)c([N+](=O)[O-])c1	inconclusive [activator, single point]
